Results reported in a compilation of properties of binary mixtures (doi:10.1016/j.molliq.2011.09.019).
The densities may have been worked out from excess volumes.

Assay: xn = mol fraction of the nth substance listed
Settings: 101 kPa

CS(C)=O + CC(=O)[O-].CC[NH2+]CC
x1 = 1
Settings	mass density [kg/m3]
298.15 K	1095.4
303.15 K	1092.4
308.15 K	1086.1

CC(=O)[O-].CC[NH2+]CC + CS(C)=O
mass density [kg/m3]
Settings	298.15 K	303.15 K	308.15 K
x1 = 0.0144	1094	1091	1084.8
x2 = 0	1021.5	1016.5	1011.9
x2 = 0.0253	1022.6	–	1013.1
x2 = 0.0627	1024.3	1019.5	1014.9
x2 = 0.1132	1026.6	1021.9	1017.3
x2 = 0.1535	1028.6	1023.9	–
x2 = 0.2023	–	1026.4	1021.7
x2 = 0.2458	1033.3	1028.8	1024
x2 = 0.2814	–	1030.8	–
x2 = 0.3244	1037.8	1033.3	1028.5
x2 = 0.3701	1040.5	1036.1	1031.2
x2 = 0.4864	1048.3	1044	1039
x2 = 0.5897	–	1052.1	1046.9
x2 = 0.66	–	1058.2	1052.8
x2 = 0.7253	1068	–	1058.8
x2 = 0.7851	–	1070.2	1064.7
x2 = 0.8406	1079.2	–	1070.3
x2 = 0.8923	1084.4	1081.3	1075.5
x2 = 0.9248	1087.7	–	1078.9
x2 = 0.956	1090.9	1087.9	1081.9
x2 = 0.971	–	1089.5	1083.3
